The values below come from PMC5515408.

The other results are listed elsewhere or left out. At the low end of the ranking the order means little.

For the assay, the system named is MYC (p64) + MAX (p21), in MYC:MAX. Put plainly: protein-binding microarray (anti-MAX antibody). The settings on record: PBM: 15 mM Tris-HCl pH 7.5, 100 mM KCl, 0.075% NP40, 7.5 mM beta-mercaptoethanol, 375 ng/ul BSA, 8 ng/ul poly(dA-dT):(dA-dT), 550 ng complex, 60 min, room …; high values mean tight binding; double strand, one strand shown; sequences stand for … in CCGGC…TTAATAGCTAAGATTACTATATCGACG
Take TGAATATGCGTA: the binding signal (log2 normalized fluorescence) is 0.185.
Take TGACCTTGTGTA: the binding signal (log2 normalized fluorescence) amounted to 0.304.
As to TGACTTGCAGTA, the binding signal (log2 normalized fluorescence) was 0.164.
Turning to TGACCTGCTGTA, the binding signal (log2 normalized fluorescence) was determined as 0.139.
The same measure for TGAAGTCTAGTA: -0.2; for TGAGTATGAGTA: 0.0761.
Under TGCGCCGTGGTA stands 0.182.
Take TGAGATAGAGTA: the binding signal (log2 normalized fluorescence) is -0.226.
TGACTTCATGTA: the binding signal (log2 normalized fluorescence) stood at 0.237.
TGATTTCGCGTA: the binding signal (log2 normalized fluorescence) was -0.012.
As to TGAAAACAGGTA, the binding signal (log2 normalized fluorescence) was determined as 0.158.
For TGAGATTGAGTA, the binding signal (log2 normalized fluorescence) was -0.202.
As to TGACCGCATGTA, the binding signal (log2 normalized fluorescence) turned out to be 0.716.
For the sequence TGAGACAAGGTA, the binding signal (log2 normalized fluorescence) turned out to be 0.136.
Under TGATATCTAGTA stands -0.135; under TGAAACCCGGTA, 0.000494.
Turning to TGACGATCAGTA, the binding signal (log2 normalized fluorescence) was -0.0317.
Turning to TGAATCCGGGTA, the binding signal (log2 normalized fluorescence) is -0.119.
Consider TGATGCGGTGTA, for which the binding signal (log2 normalized fluorescence) came out at 0.139.
TGATAGGGCGTA: the binding signal (log2 normalized fluorescence) was -0.245.
On to TGATTAAGAGTA, for which the binding signal (log2 normalized fluorescence) was -0.149.
For CGACACGCGGTA, the binding signal (log2 normalized fluorescence) is 0.697.
Take TGAGCCTGCGTA: the binding signal (log2 normalized fluorescence) came out at 0.0284.
As to TGACTCATCGTA, the binding signal (log2 normalized fluorescence) came to 0.312.
TGAGACTACGTA: the binding signal (log2 normalized fluorescence) was 0.124.
For TGAGGGATTGTA, the binding signal (log2 normalized fluorescence) was 0.0678.
As to TGATTGAACGTA, the binding signal (log2 normalized fluorescence) was found to be 0.0382.
Take TGAGACGTCTTA: the binding signal (log2 normalized fluorescence) is 0.0526.
In the case of TGATTGGATGTA, the binding signal (log2 normalized fluorescence) is -0.0229.
On to TGACGATAGGTA, for which the binding signal (log2 normalized fluorescence) was -0.062.
In the case of TGATATCGAGTA, the binding signal (log2 normalized fluorescence) was determined as 0.105.
For TGATGGCTTGTA, the binding signal (log2 normalized fluorescence) was -0.00492.
Consider TGAGGGGGCGTA, for which the binding signal (log2 normalized fluorescence) worked out at 0.74.
Take TGACGGCCAGTA: the binding signal (log2 normalized fluorescence) is -0.00272.
On to TGACTTTTCGTA, for which the binding signal (log2 normalized fluorescence) was -0.181.
Under TGATTTGTTGTA stands -0.137; under TGAATACAGGTA, 0.224; under AGACACTTAGTA, 0.33.
Consider TGACGGGTAGTA, for which the binding signal (log2 normalized fluorescence) amounted to 0.0364.
With TGACATAAGGTA, the binding signal (log2 normalized fluorescence) is 0.22.
Regarding TGATCAGATGTA, the binding signal (log2 normalized fluorescence) was found to be 0.217.
Take TGTCAAGTGGCA: the binding signal (log2 normalized fluorescence) amounted to 0.1.
Under TGAAACACAGTA stands 0.249; under TAACACGTAGTA, 0.416; under TGAAGGGCCGTA, 0.0719.
Consider AAACACGTTGTA, for which the binding signal (log2 normalized fluorescence) turned out to be 0.68.
With GCCTAGTTGTGC, the binding signal (log2 normalized fluorescence) is -0.0551.
Turning to TGAACTCAAGTA, the binding signal (log2 normalized fluorescence) is -0.155.
For the sequence TGACATTGCGTA, the binding signal (log2 normalized fluorescence) was 0.37.
Under AGTAATCGCTGC stands -0.082; under TGATGACGCGTA, 0.226; under TGAAATCAAGTA, 0.0178.
For TGACGCATGGTA, the binding signal (log2 normalized fluorescence) turned out to be 0.803.
Take TGATAAAACGTA: the binding signal (log2 normalized fluorescence) was 0.0636.
With TGAAAATCAGTA, the binding signal (log2 normalized fluorescence) is -0.13.
For TGAGTGTCAGTA, the binding signal (log2 normalized fluorescence) was 0.191.
As to TGACGACCTGTA, the binding signal (log2 normalized fluorescence) stood at 0.141.
Turning to TGATACGCAGTA, the binding signal (log2 normalized fluorescence) is -0.0514.
On to TGAGACCAGGTA, for which the binding signal (log2 normalized fluorescence) was determined as 0.00989.
Under TGACCATTAGTA stands 0.233; under TGAGTGGTTGTA, 0.154.
Under TGAGGGTACGTA stands 0.0262; under TGAACGTTGGTA, 0.0604; under TGAAGATCCGTA, -0.0818.
On to TGATCGTAGGTA, for which the binding signal (log2 normalized fluorescence) was -0.156.
With TGAAGGAAGGTA, the binding signal (log2 normalized fluorescence) is 0.0484.
For the sequence TGACTTTTGGTA, the binding signal (log2 normalized fluorescence) is -0.0102.
With TGACCACAGGTA, the binding signal (log2 normalized fluorescence) was 0.256.
As to TGATTATCAGTA, the binding signal (log2 normalized fluorescence) is 0.127.
On to TGATGCGGGGTA, for which the binding signal (log2 normalized fluorescence) amounted to 0.343.
On to TGACCGCGAGTA, for which the binding signal (log2 normalized fluorescence) turned out to be 0.44.
For the sequence TGACTCTTCGTA, the binding signal (log2 normalized fluorescence) is 0.076.
The same measure for TGAGCTCATGTA: 0.339; for TGAAACGAAGTA: 0.113.
Under AGACGCGTGGTA stands 0.53; under TGAGGCGTAGTA, -0.212; under TGACCTCACGTA, 0.274.
On to TGAGTCAGAGTA, for which the binding signal (log2 normalized fluorescence) was -0.0589.
Take TGAAAGGCGGTA: the binding signal (log2 normalized fluorescence) worked out at 0.129.
On to TGAAGGGGAGTA, for which the binding signal (log2 normalized fluorescence) amounted to 0.294.
The same measure for TGAATCTAAGTA: -0.0537.
Consider TGACTGGCAGTA, for which the binding signal (log2 normalized fluorescence) is -0.0111.
For TGACGGGCTGTA, the binding signal (log2 normalized fluorescence) was 0.00969.
Turning to TGAAGGAGCGTA, the binding signal (log2 normalized fluorescence) stood at 0.0684.
With TGATGAACCGTA, the binding signal (log2 normalized fluorescence) was determined as 0.178.
Regarding TGATCCACAGTA, the binding signal (log2 normalized fluorescence) amounted to 0.224.
On to TGATTTTCAGTA, for which the binding signal (log2 normalized fluorescence) is -0.284.
